For two molecules, binding results are on record in publication PMC10987633, “Structural basis for RAD18 regulation by MAGEA4 and its implications for RING ubiquitin ligase binding by MAGE family proteins” (The EMBO Journal, 2024).

The chains behind the UniProt entries cited, without tags or fusion partners. Where a name states a change or a piece, a line headed by the entry shows the natural chain unless it says otherwise.
UniProt P43358: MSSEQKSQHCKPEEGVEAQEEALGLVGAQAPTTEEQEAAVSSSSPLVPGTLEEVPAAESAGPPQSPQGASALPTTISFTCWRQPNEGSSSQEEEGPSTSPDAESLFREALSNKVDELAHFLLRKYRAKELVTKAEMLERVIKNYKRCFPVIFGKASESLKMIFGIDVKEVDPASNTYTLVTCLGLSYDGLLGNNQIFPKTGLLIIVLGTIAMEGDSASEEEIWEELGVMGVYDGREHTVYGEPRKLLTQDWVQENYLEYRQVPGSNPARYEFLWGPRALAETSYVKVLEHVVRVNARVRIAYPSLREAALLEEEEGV

These are yes or no findings as the source states them, for the method shown. For part of these data: Binding seen in cells or lysates may run through a third protein. Some entries that bind do so weakly or less than the wild type.

Test [1] has as its target His-tagged full-length RAD18 F350D (human) (UniProt Q9NS91). The experiment in a line: pull-down; His-tagged RAD18 (WT or mutant) co-expressed with untagged MAGEA4 in E. coli; cleared lysate on TALON resin 1 h at 4 °C; lysis buffer 200 mM NaCl, 50 mM Tris pH 7.5, 10% glycerol; western blot. A general note: Immunoblotting shows a protein as a band on a membrane.
For test [2], the target named is His-tagged full-length RAD18 A357D (human) (UniProt Q9NS91). Described as above.
The target of test [3] is His-tagged full-length RAD18 V354D (human) (UniProt Q9NS91). The description is as above.
Test [4] addresses His-tagged full-length RAD18 Y361D (human) (UniProt Q9NS91). The description is as above.
Test [5] addresses T1, His-tagged full-length RAD18 wild type (human, UniProt Q9NS91 1-495).
T1 construct: RAD18, RING E3 ubiquitin ligase, human, Uniprot Q9NS91, residues 1-495, full length; Cloned into PET15C; Dimer in the RAD18/RAD6 complex by AUC and mass photometry; also called RAD18 WT; FL RAD18; source: E. coli BL21star; co-expressed with untagged MAGEA4, in cleared lysate (His pull-down); co-expressed with RAD6 and purified as RAD18/RAD6 (TALON, SEC); not shown: His tag, N-terminal, kept
Described as above.

Test [6] addresses full-length MAGEA4 triple mutant (M161D, I205D, L288D) (human) (UniProt P43358). The test can be described thus: condition: 200 µM peptide titrated into 20 µM protein; ITC; RAD18 R6BD peptide at 200 µM titrated into protein at 20 µM; MicroCal ITC200, 25 °C; SEC buffer (100 mM NaCl, 20 mM HEPES pH 7.5, 1 mM TCEP); both purified.

On to “untagged full-length MAGEA4 wild type (from UniProt P43358 1-317)”, for which the binding result in test [1] was “binds weakly”; in test [2], “binds”; in test [3], “binds”; in test [4] it was “binds weakly”; in test [5] it was “binds”.

B1: RAD18 R6BD peptide (residues 340-366) (peptide, UniProt Q9NS91 340-366, looked up)
peptide: SKYRKKHKSEFQLLVDQARKGYKKIAG
notes: also called 27 amino acid peptide corresponding to the RAD18 R6BD; source: synthetic peptide, bought: GenScript
In the case of B1, in test [6], the binding entry was “no binding”.
